Read counts are not given, so values of variants with three or more changes are uncertain.

To fix the notation:
B1: OR4K15 (parent)
chain: GUUAACGGUCAUAGGCCAUGGAAACUAGGAGCACCAUUUCGCUGCCAGUGAAGAAAUGAACAAAGAAAAUCUGGGCCAGGCAGGCAUCAAAAGAAAUAGUCUUGCGCUCAACCAGAAAGUCUGUAAUCAUUUUAAGGGUA

The data set covers variants of B1. The data set can be described thus: self-cleavage, relative activity (ratio to wild type); higher = more cleavage; in vitro, sequencing; the parent is a self-cleaving ribozyme.
Turning to A22G U39C U43A, the self-cleavage was 1.59. A22G A47G A89U: the self-cleavage was found to be 0.77.

As for A22G A60G U72A A134G, the self-cleavage was 0.37.

As to A22G A64G A90U C113A, the self-cleavage is 0.18.

Consider A22G A82U A110G, for which the self-cleavage came out at 0.02. For the variant A22U A36G U43C A66G A111G, the self-cleavage is 0.11. For the variant A22G A23G A47G, the self-cleavage is 0.94. Turning to A22G A30G A69G A78C A94G U102C A116G, the self-cleavage came to 0.23. Consider U19C U72A U130C, for which the self-cleavage amounted to 0.07. For the variant A22G U26C A60G A67G A98C, the self-cleavage turned out to be 1.52.

As for G20U C45G U49C A56G A114G U124A, the self-cleavage turned out to be 0.08. Take U19C U100C U130C: the self-cleavage stood at 2.23.

As to A22G U103C U108A A140G, the self-cleavage was 0. On to G20U A47G G106U, for which the self-cleavage was found to be 0.03. Then A22U A36G A54G A64G A125G, with 0.67. A22G A24G U100C: the self-cleavage amounted to 1.02. With A22U U37C U102C, the self-cleavage turned out to be 2.25. In the case of A22G A78U A114G, the self-cleavage was determined as 0.15. With A22G A60G U131C, the self-cleavage came to 1.36.

Regarding U19C U57C A92G U100C, the self-cleavage was determined as 1.55. Turning to A22C A23G A27G A91G U102A, the self-cleavage turned out to be 1.07. As for A22G A24G U49A A118G U127C, the self-cleavage was determined as 0.37. As for A22U A54G A64G A67G G83U U102C U103C, the self-cleavage came out at 0.04.

On to G21A U124C U127C, for which the self-cleavage turned out to be 0.58. As for A22G A60G A89U, the self-cleavage was 1. Turning to A22G A95G A117G U122C, the self-cleavage was 1.54.

A22U A63G U102A: the self-cleavage turned out to be 1.69.

As for U19C U102C U127C U139A, the self-cleavage worked out at 1.16.

For A22G A64G A114G, the self-cleavage is 0.7. On to U19C U49C A59G A68G, for which the self-cleavage is 0.34. On to G21A A59G U108A, for which the self-cleavage was found to be 0.02. For the variant A22G U37C U39A, the self-cleavage came to 1.15. Turning to A22U A30G U120C A125G, the self-cleavage came out at 0.1. With A22G A33G A69U A86G U103C, the self-cleavage came out at 0.77. As to A22G U43C U57C A69G U108C A129G, the self-cleavage worked out at 0. The same measure for A22G A52G A60C A96G: 0.47. Then U19G A82C A117G U127C, with 0.08; and G20A A33G C35A A82G, with 0.41.

Regarding A22G C61U A89G, the self-cleavage is 1.05.

A22G A92G A95G A118G A135G: the self-cleavage is 2.67. The same measure for A22G U43C U108C A140G: 0.02; for A22G A51G A52G U72A U87G U139C: 0.35. Consider A22G A54G U124C, for which the self-cleavage came out at 0.67.

Turning to A22G U57C A68G A135G, the self-cleavage worked out at 0.9. For the variant A23G A24G A51G A66G U72G A86C, the self-cleavage turned out to be 0.09. For the variant A22G A60U A92G U100C A118G, the self-cleavage was determined as 1.99. Take A22G A55G U72C: the self-cleavage turned out to be 0.65. A22G U100C A129G: the self-cleavage was determined as 1.85. On to A23C A66G A92G, for which the self-cleavage was 0.56. The same measure for U19G A82G A95G: 0.62. As for A22G A96G A118U A129G, the self-cleavage was determined as 0.35. On to A22G A23G A86G A89G A95G U108C A135C, for which the self-cleavage stood at 0.01.

Take A22G A24U U43C A67G A68G U108C A126G: the self-cleavage was determined as 0.

Regarding G20A U102A U108C, the self-cleavage was 0.01.

Consider A22U A69U U102C, for which the self-cleavage is 1.98. Turning to A22G U39C U57C, the self-cleavage turned out to be 1.36. As for A22G A68G A69G A78U, the self-cleavage turned out to be 0.31. The same measure for A22G A98G G115U: 0.06; for A22G A27G C40U U43A: 1.02. With A22G A36G U87C U131C A140G, the self-cleavage came out at 1.26. Take A22G A66G A82G A86G: the self-cleavage was found to be 0.34. In the case of A22G A91G U103C, the self-cleavage was 0.4. For G20A U39A A110G A116G, the self-cleavage was 0.08.

A23C A89U A111G: the self-cleavage turned out to be 0.02. As for A22G G58A A78G U131C, the self-cleavage amounted to 0.32.

With G21U A52G A86G U100A, the self-cleavage is 0.4.

On to A22G U57A G74A G106A, for which the self-cleavage worked out at 0.02. For A22G U72C A117G, the self-cleavage was determined as 0.17. On to A22G A52G A111G, for which the self-cleavage was found to be 0.07. As to A22G A24G A82U A126G, the self-cleavage was 0.07.

For A22G A78U A95G U120A, the self-cleavage was found to be 0.49. For A22G A51U A117G, the self-cleavage worked out at 1.52.

As to A22G U43A A94U, the self-cleavage is 1.38. As to A22G A82C U122A, the self-cleavage came out at 0.18. For U19G U108C A117G, the self-cleavage was 0.01.

As for A22U A23G U122C A134G, the self-cleavage amounted to 0.66. With A22U A24G U38A A117U, the self-cleavage was 1.05. Then A22U A24G A92G U122A, with 1.62. A22G A51G G53A U103C: the self-cleavage was determined as 1.17. In the case of A22G A69U U100C U108C A125U, the self-cleavage was 0.01. As for A22G A23G A54U G137A A140G, the self-cleavage is 0.66. Consider A22G A63U G75C U87C, for which the self-cleavage came out at 0.19. Then A22U A27G A30G A62U U133C, with 0.66.

For the origin of these results see the RNAGym collection of RNA variant scans (doi:10.7554/elife.90254).
